# Reference: publication PMC12136788
# Some of the results follow.
# B1: chr4:67617988:67618115:-|3pUTR|ENSG00000033178|unk|FALSE|unique (ssRNA)
# RNA: GGGAGUUCUACAGUCCGACGAUCAAAUGUAGAAUGUUAAAAAUUAUUGCUAGGGUAGUCUUUUUUUUUUCCAGAAACCUAAUUAGGGUAUUAAAUUUUGUGUUUUUUUUGUUUUUUUUUUUUAAACAGAAGCAUGUUAUUUCACAACAGAGGAUUGAGCAUCA
# B2: ENSG00000198589:be:win_8401|CDS|ENSG00000198589|bound_else_gene|NA|bound_elsewhere_windowed (ssRNA)
# RNA: GGGAGUUCUACAGUCCGACGAUCAAGCAGCUCUUUGCCUAUCCAGGAUGUGACGCUGGAAUCCGGGCCAUGGCGCUGUCUUACGACCAGAGGUGCAUCAUUUCUGGCAUGGCUUCAGGAAGCAUUGUGCUAUUUUACAACGACCAACAGAGGAUUGAGCAUCA
# B3: chr5:138934237:138934351:+|3pUTR|ENSG00000044115|msi1_unk|FALSE|overlapping (ssRNA)
# RNA: GGGAGUUCUACAGUCCGACGAUCUUUCCAAGAACAUAGUUUAAGUUGAUUAAAAAUGCUUUUAGAAUGCAGGAGCCUACUUCUAGCUGUAUUUUUUGUAUGCUUAAAUAAAAAUAAAAAUUCAUAACCAAAGAGAAUCCCACACAACAGAGGAUUGAGCAUCA
# B4: chr2:30159184:30159288:+|3pUTR|ENSG00000119801|unk|FALSE|bound_elsewhere (ssRNA)
# RNA: GGGAGUUCUACAGUCCGACGAUCAAAAUCUGGGCUGUUAGAGUGAAAAAGUGUGUUUUAUGUCAAUUGUGAAAGGAAAAUGUUAGGAGUAUGGUUUUUAAACUUGGGCUUCAUUUUAAACUUUUUUUUUUAAACCCAGUUAUUCAACAGAGGAUUGAGCAUCA
# B5: ENSG00000198589:be:win_8051|CDS|ENSG00000198589|bound_else_gene|NA|bound_elsewhere_windowed (ssRNA)
# RNA: GGGAGUUCUACAGUCCGACGAUCGCCAUGACUAUGAGGUCACAUGUGCUGCGGUGUGUGCGGAGCUAGGCCUGGUGUUGAGUGGUUCACAAGAAGGACCAUGUCUCAUACAUUCCAUGAAUGGAGACUUGUUGAGGACCUUGGCAACAGAGGAUUGAGCAUCA
# B6: chr2:182778012:182778113:+|3pUTR|ENSG00000077232|msi1|total|mutant (ssRNA)
# RNA: GGGAGUUCUACAGUCCGACGAUCUAAAGAUAUAUGUGUUCAUGUAUUUUCUGAAAUUGCUUUCACCGAAAUUUUCCCACUGACCGUUGAUUUUUGAGGCAUCUAAUAUUUACAUAUUUGCCUUCUGAACUUUGUUUUGACCUGCAACAGAGGAUUGAGCAUCA
# B7: chr12:79773885:79773986:-|3pUTR|ENSG00000058272|msi1|FALSE|unique (ssRNA)
# RNA: GGGAGUUCUACAGUCCGACGAUCGGUUAUUUAUUCUUUGUAUCUAAAACUGAACAGCUACUGUGCUAUAUUGAUUUUAUUGGUAGUAUUGAGCAGACCUUGUUUCUGCAUGAAACUAGUUGCAAAACCCACUAUUUUGGAAAUCAACAGAGGAUUGAGCAUCA
# B8: chr5:97028609:97028710:+|3pUTR|ENSG00000113441|msi1|total|mutant (ssRNA)
# RNA: GGGAGUUCUACAGUCCGACGAUCUUGCAAAAGCCAAGGUAAAGCCAGGAUCGCUGCCAAGUUGUUUGCACUCUUUGGAGUUCCCGUCCGCUCAGGGCCUGACUGUAUUUUUCAUCCAUCUUUUCUGAAGUGUCUUUGGGCAGUCAACAGAGGAUUGAGCAUCA
# B9: chr4:70820284:70820384:-|3pUTR|ENSG00000132463|msi1_unk|FALSE|overlapping (ssRNA)
# RNA: GGGAGUUCUACAGUCCGACGAUCUGAACUGGUAUGGUUUGGCAGAAUAGUUUUAAAUUUUGCUGUAUUUGAUUACUUAGAGAUAGGAAUUUUUAAAAAUCAAAACAAAAAAUACCACAGCUUAGUGUAAAUGACAAUUUGGCGCAACAGAGGAUUGAGCAUCA
# B10: chr3:66417149:66417250:-|CDS|ENSG00000144749|msi1|total|mutant (ssRNA)
# RNA: GGGAGUUCUACAGUCCGACGAUCCAACAAGAUUCGCAGCGUGGAGGGGAGCCAGCUGAAGGCCUACCUUUCCUCCGAAGUGUCCGAUCUGAGUUUGAACAACAUCACGGAAGUGCGGAACACCUGCUUUCCACACGGACCGCCCAACAGAGGAUUGAGCAUCA
# B11: chr4:123402332:123402450:+|CDS|ENSG00000164056|unk|FALSE|unique (ssRNA)
# RNA: GGGAGUUCUACAGUCCGACGAUCGACGAAGGGGAUUCCUAUUCAGAUAAUCCUUGCUCCUGUUCACAAUCACACUGCUGCUCUAGAUACCUGUGUAUGGGAGCCAUGUCUUUAUUUUUACCUUGCUUACUCUGUUAUCCUCCUCAACAGAGGAUUGAGCAUCA
# B12: chr20:25296659:25296760:+|3pUTR|ENSG00000100994|msi1|total|mutant (ssRNA)
# RNA: GGGAGUUCUACAGUCCGACGAUCUGGGGGUCAGGGUGGUUUUGAGAGAGCAGGGUAAGGAAGGAAUGUGCCCGAAGUGCUCCCCGUUUCUUGUAAAGGAAGCCAGAGUUGACAGUACAAAGGGUCGUGGCCAGCCCUGCAGCUCAACAGAGGAUUGAGCAUCA
# B13: chr1:17068045:17068226:-|3pUTR|ENSG00000117115|msi1|total|mutant (ssRNA)
# RNA: GGGAGUUCUACAGUCCGACGAUCCUCCUUCCACUGCCUUGACUUUCUUCCUUUUUAUUCCUGGUGCCAUCUGUCCAGGCAGCCCGACAAGAACUUGUUCGCCAGCAGCCAGAUUCAGGCCUUCCCAGGGGCAUAAUAAGUGACCAACAGAGGAUUGAGCAUCA
# B14: chr7:149003559:149003660:-|3pUTR|ENSG00000155660|msi1|total|mutant (ssRNA)
# RNA: GGGAGUUCUACAGUCCGACGAUCUUUUAUACUUUGGUGUUUCACUUCAUGCUCUGAAUACUGAAUAACCAUGAAUGACUGAACCGUUCCGUCCAGAUUUUUACAGAGGAUACAUCUAUUUUUAUCAUUAUUUGGGGUUUGAAACAACAGAGGAUUGAGCAUCA
# B15: chr12:2800410:2800520:+|CDS|ENSG00000004478|unk|FALSE|unique (ssRNA)
# RNA: GGGAGUUCUACAGUCCGACGAUCAAAUACAAGCAAGCUUUACUACAGUAUAAGAAGAUCGUGUCUUGGCUGGAAUAUGAGUCUAGUUUUUCCAAUGAGGAAGCACAGAAAGCACAGGCCCUUCGACUGGCCUCUCACCUCAACCAACAGAGGAUUGAGCAUCA
# B16: ENSG00000124766:be:win_301|CDS|ENSG00000124766|bound_else_gene|NA|bound_elsewhere_windowed (ssRNA)
# RNA: GGGAGUUCUACAGUCCGACGAUCAAAGACAGCGACAAGAUCCCUUUCAUUCGAGAGGCGGAGCGGCUGCGCCUCAAGCACAUGGCUGACUACCCCGACUACAAGUACCGGCCCAGGAAGAAGGUGAAGUCCGGCAACGCCAACCAACAGAGGAUUGAGCAUCA
# B17: chr15:38488102:38490688:-|three_prime_utr|ENSG00000172575|control|control|control (ssRNA)
# RNA: GGGAGUUCUACAGUCCGACGAUCUACUCUGAAAGCAGAUAAUGAUGCCCUAAAGAUCCAACUGAAAUAUGCACAGAAGAAAAUAGAAUCCCUCCAGCUUGAAAAAAGCAAUCAUGUCUUAGCUCAAAUGGAGCAGGGUGACUGCAACAGAGGAUUGAGCAUCA
# B18: chr3:186789481:186789582:+|3pUTR|ENSG00000156976|msi1_unk|FALSE|overlapping (ssRNA)
# RNA: GGGAGUUCUACAGUCCGACGAUCUUGGGGUGGGUAUAAAAGAUGGGGUCUGUAAAAUCUUUCUUUCUUAGAAAUUUAUUUCCUAGUUCUGUAGAAAUGGUUGUAUUAGAUGUUCUCUAUCAUUUAAUAAUAUACUUGUGGACUCAACAGAGGAUUGAGCAUCA
# B19: chr10:128108355:128108456:-|CDS|ENSG00000148773|msi1|FALSE|unique (ssRNA)
# RNA: GGGAGUUCUACAGUCCGACGAUCAGUGGACACUCCAACAAGCACAAAGCAAUGGCCUAAGAGAAGUCUCAGGAAAGCAGAUGUAGAGGAAGAAUUCUUAGCACUCAGGAAACUAACACCAUCAGCAGGGAAAGCCAUGCUUACCAACAGAGGAUUGAGCAUCA
# B20: chr7:130192614:130192715:-|CDS|ENSG00000146842|msi1|total|mutant (ssRNA)
# RNA: GGGAGUUCUACAGUCCGACGAUCUACAUGACCGACCUACGAACUUUGGAUACUUUUCUCAGAAGUGAAGAGGAGAAACAGCACCGGGUUAAGCUGGGUACAUAUAUAUUUCUGUAUAUCUACUAUACAUAUUUUUGGUGUCAACAACAGAGGAUUGAGCAUCA
# B21: chr7:5527443:5527567:-|3pUTR|ENSG00000075624|msi1_unk|total|mutant (ssRNA)
# RNA: GGGAGUUCUACAGUCCGACGAUCCAUCCCCCAAAGUUCACAAUGUGGCCGAGGACUUUGAUUGCACAUUGUUGUUUUUUUAACCGUCAUUCCAAAUAUGAGAUGCGUUGUUACAGGAAGUCCCUUGCCAUCCUAAAAGCCACCCAACAGAGGAUUGAGCAUCA
# B22: chr22:35662008:35662068:+|3pUTR|ENSG00000221963|msi1_unk|FALSE|overlapping (ssRNA)
# RNA: GGGAGUUCUACAGUCCGACGAUCUGAGCAACUUUUAAUUAUUCUCCUGUCCUGCAAUAUGAGUUAAUCUUCUCUGAUCGAUGUAGAUUCCAGGAAGGGGUGUCCAGGACAAUUACCUUCCUUCUGGAGAAACUUCCCUUAAUCCAACAGAGGAUUGAGCAUCA
# Target: MSI1 full-length (mouse, UniProt Q61474 1-362)
# UniProt Q61474, sequence (Q61474 whole entry): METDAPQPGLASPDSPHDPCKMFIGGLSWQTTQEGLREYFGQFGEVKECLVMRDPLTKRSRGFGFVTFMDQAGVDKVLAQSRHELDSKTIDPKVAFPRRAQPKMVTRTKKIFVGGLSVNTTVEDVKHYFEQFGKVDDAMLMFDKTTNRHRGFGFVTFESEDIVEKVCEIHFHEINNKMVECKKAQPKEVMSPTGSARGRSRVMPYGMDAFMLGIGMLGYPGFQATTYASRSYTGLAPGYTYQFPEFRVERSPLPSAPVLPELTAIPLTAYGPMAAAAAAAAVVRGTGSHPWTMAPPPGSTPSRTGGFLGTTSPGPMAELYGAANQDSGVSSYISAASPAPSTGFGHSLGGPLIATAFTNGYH
# Experiment: nsRBNS (natural sequence RNA bind-n-seq); RBNS binding buffer (assumed for nsRBNS): 25 mM Tris pH 7.5, 150 mM KCl, 3 mM MgCl2, 0.01% Triton X-100, 500 ug/ml BSA, 20 U/ml SUPERase-In, 4 C; UNK is unkempt and MSI1 is Musashi-1; names of the RNAs are library labels; protein concentration not given here; high values mean tight binding
row,Binder,binding signal [enrichment R]
1,B1,6.09
2,B2,0.324
3,B3,1.48
4,B4,0.967
5,B5,0.416
6,B6,0.366
7,B7,1.35
8,B8,0.321
9,B9,4.91
10,B10,0.36
11,B11,0.647
12,B12,0.673
13,B13,0.467
14,B14,0.545
15,B15,0.781
16,B16,0.471
17,B17,0.706
18,B18,3.31
19,B19,0.872
20,B20,0.38
21,B21,0.408
22,B22,0.305
